Reference: PubChem BioAssay AID1347073 (National Center for Advancing Translational Sciences (NCATS), 2019)
Screen size: about 45,000 compounds; about 200 (0.44%) were called active. About 7% were inconclusive and are not listed. The call rests on the fitted dose curve; in most records, active means well fitted activation curve with a large enough effect; inconclusive means small, poorly fitted or top-dose-only effect; inactive means no such curve, though single readings can be large or run the other way. The list shows a part of the results.

experiment: qHTS of TDP-43 Inhibitors: NCGC Sytravon Library Screen; conditions: yeast TDP-43 toxicity rescue, BacTiter-Glo growth, 24 h; at 46.1 µM (top of the series); further: 0% is about no effect; nearly all actives have a fitted effect of over 55% in size
Outline: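 TDP-43-expressing yeast, pregrown in raffinose, seeded at OD600 0.02 in galactose medium with compound for 24 hr at 30 deg C. Growth read by BacTiter-Glo luminescence, so rescue of toxicity appears as activation.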

Row | SMILES | growth rescue (activation)
1 | CCCSP1(=S)NCCCO1 (configuration not stated) | inactive: 1.25%
2 | C[C@H]1CC2C3CC=C4C[C@@H](O)CC[C@]4(C)C3CC[C@]2(C)[C@H]1O (some centres not stated) | inactive: 5.51%
3 | C/C(=N\Nc1ccccc1)c1c(O)n(C)c(=O)n(C)c1=O | inactive: -28.3%
4 | Cc1ccc(-n2c(O)c(/C=N/Nc3ccccc3)c(=O)[nH]c2=O)cc1C | inactive: -7.65%
5 | Cc1cc(C)cc(N2C(=O)/C(=C\c3ccc(N4CCN(C)CC4)o3)C(=O)NC2=S)c1 | inactive: -2.04%
6 | O=C(O)[C@H]1NC[C@H]2C[C@H]21 | inactive: -4.91%
7 | Cc1cccc(-n2c(O)c(C=Nc3ccc(S(N)(=O)=O)cc3)c(=O)[nH]c2=O)c1 | inactive: -13.9%
8 | C1CNC2NCCNC2N1 (configuration not stated) | inactive: -0.0793%
9 | CC(C)CN1CCN(Cc2ccc(C(F)(F)F)cc2)CC1CCO (configuration not stated) | inactive: -5.31%
10 | O=S(=O)(c1ccccc1)N1CN2CCN(C2)C1 | inactive: 27.4%
11 | Cc1sc(-n2c(C)cc(C=C3C(=O)NC(=O)NC3=O)c2C)c(C#N)c1C | inactive: -2.98%
12 | CC(C)(C)c1ccc(C(=O)C2CCCN(C3CCC3)C2)cc1 (configuration not stated) | inactive: 9.89%
13 | CCCCCn1c(=O)c(C(=O)Nc2ccccc2S(N)(=O)=O)c(O)c2ccccc21 | inactive: 1.51%
14 | CCN1C(=O)C(=C2C=C(C)N(Cc3ccco3)C(C)=C2)C(=O)N(CC)C1=S | inactive: 14.9%
15 | COc1ccc(-c2nn(CCC#N)cc2C(=O)O)cc1 | inactive: 5.6%
16 | Cc1cccc(CN2CCCC(C(=O)c3ccc(C(F)(F)F)cc3)C2)n1 (configuration not stated) | inactive: -2.29%
17 | Clc1ccc(CNC2CN3CCC2CC3)cc1 (configuration not stated) | inactive: -7.57%
18 | CCNC(=S)N(C)CCc1cc2c(c(OC)c1C=C1C(=O)N(C)C(=O)N(C)C1=O)OCO2 | inactive: -6.6%
19 | CC(Cc1ccccc1)NC(=O)CCCCC(=O)NC(C)Cc1ccccc1 (configuration not stated) | inactive: -19.4%
20 | O=C(c1cccc(C(F)(F)F)c1)C1CCCN(Cc2ncc[nH]2)C1 (configuration not stated) | inactive: -1.04%
21 | Clc1cccc(CNCCc2ccc3c(c2)OCO3)c1 | inactive: 7.78%
22 | C[C@]12CC[C@H](O)CC1=CCC1C2CC[C@@]2(C)C1CC[C@@H]2OCc1ccccc1 (some centres not stated) | inactive: 5.15%
23 | O=C(CNC(=O)OCc1ccccc1)NCC(=O)Nc1ccc(Br)cc1C(=O)c1ccccc1 | inactive: 1.01%

Row | SMILES | growth rescue (activation)
24 | COP(=O)(OC)/C(C=O)=N/Nc1ccc([N+](=O)[O-])cc1 | inactive: 24.6%
25 | O=C(O)c1cccc2c1NC(c1cccc([N+](=O)[O-])c1)C1CC(Sc3ccccc3[N+](=O)[O-])C(Cl)C21 (configuration not stated) | inactive: 3.82%
26 | CCc1ccc2c(CN3CC=C(c4ccccc4)CC3)cc(=O)oc2c1 | inactive: 6.02%
27 | Cc1cc(C=C2C(=O)NC(=O)NC2=O)c(C)n1-c1cccnc1 | inactive: -1.43%
28 | CNC(=O)Oc1ccc2ncccc2c1 | inactive: 33.8%
29 | NC(=O)Cn1cc(C(=O)c2ccccc2)c2ccccc21 | inactive: 1.32%
30 | C[N+]12CCC(CC1)C(C(O)(c1cccc(Cl)c1)c1cccc(Cl)c1)C2 (configuration not stated) | inactive: 1.93%
31 | C[C@]12CCC3C(CC[C@H]4C[C@@H](O)CC[C@]34C)C1CC[C@@H]2O (some centres not stated) | inactive: 7.27%
32 | CC1COC2N=C(N[N+](=O)[O-])NC2O1 (configuration not stated) | inactive: 6.92%
33 | CC(Cc1ccccc1)NC(=O)NC(C)Cc1ccccc1 (configuration not stated) | inactive: 3.09%
34 | O=C(Cc1ccccc1)N1CCN(Cc2ccc(Cl)cc2)CC1 | inactive: -8.04%
35 | COc1ccc(P2(=O)Nc3ccccc3N2)cc1 | inactive: 8.1%
36 | O=C1NC(=S)N(C2CC2)C(=O)/C1=C/c1ccc2c(c1)CCN2CCCCl | inactive: 37.2%
37 | Cc1nc2ccc(Cl)cc2c(=O)n1-c1ccc([N+](=O)[O-])cc1 | inactive: 7.07%
38 | CC1(C(O)(C#CCN2CCCCC2)c2ccccc2)CCCC1 (configuration not stated) | inactive: 11.1%
39 | O=c1c2ccccc2[nH]c(=S)n1-c1ccc(Br)cc1 | inactive: 2.61%
40 | Cc1nn(Cc2ccc(Cl)cc2Cl)c(Cl)c1C(=O)NC1CCCc2ccccc21 (configuration not stated) | inactive: 1.74%
41 | COc1ccc(C(C)=O)cc1CN1CC=C(c2ccccc2)CC1 | inactive: 12.9%
42 | CN(C)C1(CNC(=O)Nc2ccc(Cl)c(Cl)c2)CCCCC1 | inactive: 1.59%
43 | CC(=O)Nc1nc(CCl)cs1 | inactive: -4.7%
44 | CC(C)(C)OC(=O)c1c(N)n(Cc2ccco2)c2nc3ccccc3nc12 | inactive: 31.5%
45 | COc1cc(CC2(CCc3ccncc3)C(=O)NC(=O)NC2=O)cc(OC)c1OC | inactive: -11.5%
46 | Cc1cccc(OP(=O)(Oc2ccccc2)OC(c2ccccc2)C(F)(F)F)c1 (configuration not stated) | inactive: 10.3%

Row | SMILES | growth rescue (activation)
47 | Cc1cc(C)c(-n2c(O)c(/C=N/N3CCCCC3c3cccnc3)c(=O)[nH]c2=O)c(C)c1 (configuration not stated) | inactive: 2.91%
48 | Nc1cc(N2CCNCC2)c([N+](=O)[O-])cc1Cl | inactive: 7.38%
49 | CCCC(=O)NC(Oc1ccc(C(C)=O)cc1)C(Cl)(Cl)Cl (configuration not stated) | inactive: 3.78%
50 | C=CCn1c(O)c(C(C)=Nc2cccc(C(=O)O)c2)c(=O)[nH]c1=O | inactive: -13.2%
51 | Cc1ccc2c(c1)C1CN(C)CCC1N2C(=O)c1cccs1 (configuration not stated) | inactive: 9.57%
52 | COc1ccccc1OC(=O)c1ccc(C)c(S(=O)(=O)N2CCOCC2)c1 | inactive: -4.42%
53 | COC(=O)Nc1ccc(N=C(N)N[N+](=O)[O-])cc1 | inactive: 0.472%
54 | Clc1ccc(CNCCc2ccc3c(c2)OCO3)cc1 | inactive: -9.24%
55 | Cn1cccc1/C=C1\C(=O)NC(=O)N(CCC2=CCCCC2)C1=O | inactive: 2.71%
56 | CCOC(=O)C1(CCCc2ccccc2)CCN(C2CCCC2)CC1 | inactive: -3.96%
57 | COc1ccccc1NC(=O)COC(=O)c1cc(C)n(C2CC2)c1C | inactive: -15.4%
58 | CCOP(=S)(OCC)Oc1cc(C)oc(=O)c1Cl | inactive: 0.979%
59 | Cc1cc(C)cc(N2C(=O)NC(=O)/C(=C\c3cccn3-c3ccccc3)C2=O)c1 | inactive: -26.2%
60 | Nc1nnc(CCN2CCCCC2)s1 | inactive: 23.1%
61 | COCCO[C@H]1CCC2C3CC=C4C[C@@H](O)CC[C@]4(C)C3CC[C@@]21C (some centres not stated) | inactive: -1.92%
62 | CC(C)CCCn1c(O)c(/C=C2/C=CC=N2)c(=O)[nH]c1=O | inactive: -5.42%
63 | COP(=S)(OC)c1c(C)nn(CCC#N)c1NC(=O)c1ccc(Cl)cc1 | inactive: 13.1%
64 | CC/C(=N\Nc1ccccc1)c1c(O)n(C)c(=O)n(C)c1=O | inactive: -36.7%
65 | Nc1ccccc1-[n+]1c(-c2ccccc2)cc(-c2ccccc2)cc1-c1ccccc1 | inactive: 14.4%
66 | COC(=O)C(=O)N1CC2(C)CNCC(C)(C1)C2=O | inactive: -1.42%
67 | Cc1ccccc1N1C(=O)NC(=O)/C(=C\c2cnn(-c3ccccc3)c2)C1=O | inactive: 13.9%
68 | O=C(COc1ccc(Cl)cc1)N1CCN(C/C=C/c2ccccc2)CC1 | inactive: 16.1%
69 | CN(C)C(CNC(=O)Cc1c(Cl)cccc1Cl)c1ccccc1 (configuration not stated) | inactive: -7.1%

Row | SMILES | growth rescue (activation)
70 | O=C(N/N=C/c1c(O)n(Cc2ccc(F)cc2)c(=S)[nH]c1=O)c1ccncc1 | inactive: 9.56%
71 | CCn1c(O)c(C=Nc2ccc(S(N)(=O)=O)cc2)c(=O)[nH]c1=S | inactive: 18.4%
72 | CC(C(N)=O)N1CC(c2ccc(Cl)cc2)CC1=O (configuration not stated) | inactive: -9.49%
73 | CC(=O)O[C@H]1CC[C@@]2(C)C(=CC(=O)C3C2CC[C@@]2(C)C3C[C@H](OC(C)=O)[C@@H]2OC(C)=O)C1 (some centres not stated) | inactive: 9.86%
74 | C[C@]12CCC3C(CC[C@H]4C[C@@H](O)CC[C@]34C)[C@H]1CC[C@H]2O (some centres not stated) | inactive: 23.6%
75 | Cc1ccsc1C(=O)C1CCCN(Cc2sc(N(C)C)nc2Cl)C1 (configuration not stated) | inactive: -2.94%
76 | Cc1ccc(-n2c(O)c(C=NC3CCCCC3N)c(=O)[nH]c2=O)cc1C (configuration not stated) | inactive: 0.141%
77 | CCC(=O)N1N=C(c2c(O)n(CCc3ccccc3)c(=O)[nH]c2=O)CC1c1ccc(OC)c(OC)c1 (configuration not stated) | inactive: 19.8%
78 | Cc1ccc(N2Cc3ccccc3C2=N)cc1[N+](=O)[O-] | inactive: 8.36%
79 | CCN(CC)c1ccc(CNCCc2ccc(F)cc2)cc1 | inactive: -0.175%
80 | O=c1[nH]c(=S)[nH]c(O)c1C(c1ccccn1)c1c(O)[nH]c(=S)[nH]c1=O | inactive: -3.1%
81 | COc1cc(/C=C/c2nc3ccccc3c(=O)n2-c2cccc(O)c2)ccc1O | inactive: 2.73%
82 | CC1N=C(c2ccccc2Cl)c2cc(Br)ccc2NC1=O (configuration not stated) | inactive: -2.73%
83 | COc1ccc(-n2c(O)c(C=NCCN3CCN(C(C)=O)CC3)c(=O)[nH]c2=S)cc1 | inactive: -11.8%
84 | O=C1CN=C(c2cccc(Br)c2)c2cc(Br)ccc2N1 | inactive: -10.1%
85 | O=c1[nH]c(=S)[nH]c(O)c1N=Nc1ccc2c(c1)OCCO2 | inactive: -20.6%
86 | O=C(O)COc1ccccc1/C=C1\C(=O)NC(=O)N(CCC2=CCCCC2)C1=O | inactive: 7.11%
87 | O=C(c1ccccc1F)N1CCC2(CC1)OCCO2 | inactive: 1.21%
88 | Cc1cccn2c(=O)c3c(nc12)N1CCCCC1C1(C3)C(=O)N(C)C(=O)N(C)C1=O (configuration not stated) | inactive: 12.6%
89 | Cc1ccc2c(CN3CC=C(c4ccccc4)CC3)cc(=O)oc2c1C | inactive: -15.2%
90 | CC[C@]12C=CCN3CCC4(c5cc(Br)c(OC)cc5N(C)C4[C@@](O)(C(=O)OC)[C@@H]1OC(C)=O)C32 (some centres not stated) | inactive: -4.65%
91 | COc1ccc(-n2nc(C(=O)NCC(=O)N3CCC4(CC3)OCCO4)c3ccccc3c2=O)cc1OC | inactive: 3.96%
92 | Cc1ccc(NP(=O)(Oc2ccccc2)Oc2ccccc2)cc1 | inactive: -9.9%
